Reference: PubChem BioAssay AID1347073 (National Center for Advancing Translational Sciences (NCATS), 2019)
Among all 45,000 compounds or so, about 200 (0.44%) were called active. Another 7% or so got no clear call; they are omitted. Calls follow the shape of the dose curve; as a rule, active = well fitted activation curve with a large enough effect; inconclusive = small, poorly fitted or top-dose-only effect; inactive = no such curve, though single readings can be large or run the other way. The list shows a part of the results.

test: qHTS of TDP-43 Inhibitors: NCGC Sytravon Library Screen; details: yeast TDP-43 toxicity rescue, BacTiter-Glo growth, 24 h; series mostly up to 46.1 µM; growth rescue (activation): at the top concentration; also: 0% is about no effect; nearly all actives have a fitted effect of over 55% in size
How it was run: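 TDP-43-expressing yeast, pregrown in raffinose, seeded at OD600 0.02 in galactose medium with compound for 24 hr at 30 deg C. Growth read by BacTiter-Glo luminescence, so rescue of toxicity appears as activation.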

Row | SMILES | growth rescue (activation)
1 | Cc1ccc2cc(C)c(N3CCC(C)CC3)nc2c1 | inactive: -6.48%
2 | O=C(CSc1n[nH]c(=O)[nH]c1=O)NC1CC1 | inactive: 10.1%
3 | Cc1cccc(C(=O)OCc2cc(=O)oc3c(C)c(C)ccc23)c1O | inactive: -4.56%
4 | Cc1cc(C)nc(N/N=C/c2cccc(Cl)c2)n1 | inactive: 3.06%
5 | Cn1c(=O)c2cc(NC(=O)NCc3ccc(Cl)cc3Cl)ccc2n1Cc1ccc(F)cc1 | inactive: 15.5%
6 | Cc1ccc(N(CC(=O)NC2CCCC2)C(=O)CCC(=O)Nc2ccccn2)cc1 | inactive: 3.76%
7 | O=S(=O)(c1ccccc1)N1CCC2(CC1)CO2 | inactive: 17.3%
8 | N#CCC(=O)N/N=C/c1c(-c2ccccc2)n(-c2ccccc2)c2ccccc12 | inactive: 5.47%
9 | COc1ccccc1NS(=O)(=O)c1cc(NC(=O)c2cccs2)ccc1N1CCCCC1 | inactive: 3.99%
10 | COc1ccc(Cn2c(-c3ccc(C)cc3)nc3c(c(=O)c4ccccc4n3C)c2=O)cc1 | inactive: 2.69%
11 | Cc1cccc(C)c1OCC1CNC(=O)O1 (configuration not stated) | inactive: 2.61%
12 | COc1ccc(C(=O)/C=C/c2ccc(OC)c(COc3ccccc3F)c2)cc1 | inactive: 2.97%
13 | CC1(C(=O)NS(=O)(=O)C2CC2)CCCN(C(=O)c2cccnc2Oc2ccccc2)C1 (configuration not stated) | inactive: 6.37%
14 | COC(=O)c1ccc(/C=C2\N=C(SC)SC2=O)cc1 | inactive: 1.42%
15 | NC(=O)c1ccc(NC(=O)COC(=O)c2ccc3c(c2)OCCO3)cc1 | inactive: 6.82%
16 | COc1cc(OC)cc(C(=O)NCC2CCCN(C(=O)c3csc(C(C)C)n3)C2)c1 (configuration not stated) | inactive: 8.38%
17 | COc1ccc(CC(=O)N/N=C(\C)CC(=O)Nc2cccc(F)c2)cc1 | inactive: -1.73%
18 | O=C(CNS(=O)(=O)/C=C/c1ccccc1)OC1CCOC1=O (configuration not stated) | inactive: -4.47%
19 | COc1ccc(N(CC(=O)NC2CCCCC2)C(=O)c2snc(C(N)=O)c2N)cc1 | inactive: 7.01%
20 | CCC1Oc2ccccc2N(CC(=O)NC2CCCCC2)C1=O (configuration not stated) | inactive: -16.5%
21 | Cc1ccc(C)c(Nc2c([N+](=O)[O-])c(=O)oc3ccccc23)c1 | inactive: 12.1%
22 | CN(C)c1oc(/C=C/c2ccc(F)cc2)nc1C#N | inactive: 22.7%

Row | SMILES | growth rescue (activation)
23 | O=C(CNC(=O)c1ccccc1)N=Nc1c(O)[nH]c2ccc(Br)cc12 | inactive: -22.3%
24 | Cc1ccc(SCC(=O)N2N=CCC2c2ccccc2)cc1 (configuration not stated) | inactive: -4.17%
25 | CCOC(=O)NC(=O)CSc1ccc2ccccc2n1 | inactive: 33%
26 | O=C(CC(=O)N/N=C/c1cccs1)NCc1ccccc1 | inactive: 9.74%
27 | COc1ccc(C(=O)NC(=S)N2CCN(c3ccc([N+](=O)[O-])cc3)CC2)cc1 | inactive: 22.7%
28 | Cc1ccc(C(=O)Nc2nc(C)c(C(=O)Nc3ccc4c(c3)CCC4)s2)cc1 | inactive: 9.02%
29 | O=C(/C=C/c1ccccc1)Nc1ccc(C(=O)N2CCCCC2)cc1 | inactive: 5.86%
30 | COc1ccc(S(N)(=O)=O)cc1C(=O)NC1CCCc2ccccc21 (configuration not stated) | inactive: -1.44%
31 | COc1cccc(/C=N/NC(=O)c2cc3c(OC)cccc3[nH]2)c1O | inactive: 1.8%
32 | COc1ccc(C2=NN(c3ccc(C=O)cc3)C(c3ccccc3)C2)cc1 (configuration not stated) | inactive: 19.2%
33 | COC(=O)c1cc(C(=O)NCC2CCCCC2)cc([N+](=O)[O-])c1 | inactive: 29%
34 | COc1ccc(NC(C)C(=O)N/N=C/c2ccccc2OCc2cccc(Br)c2)cc1 (configuration not stated) | inactive: 14%
35 | CC1(C(=O)O)CCCN(C(=O)/C=C/c2ccccc2)C1 (configuration not stated) | inactive: 5.21%
36 | O=C(COC(=O)c1ccccc1NC(=O)c1ccccc1)c1ccc([N+](=O)[O-])cc1 | inactive: 5.66%
37 | CC(C)(C)C1CCC2(CC1)NC(CO)(CO)CO2 (configuration not stated) | inactive: 18.1%
38 | CCOc1ncccc1C(=O)N(C)CC(=O)Nc1ccc(C)cc1 | inactive: 2.57%
39 | Cc1occc1C(=O)N(C)Cc1nc(-c2ccccc2)no1 | inactive: 7.57%
40 | CSc1ccccc1-c1cnc(NC(C)=O)cn1 | inactive: 3.93%
41 | CN1CCN(c2ncnc3c2ncn3[C@H]2CN(Cc3ccco3)C[C@@H](CO)O2)CC1 | inactive: 2.45%
42 | CCn1c2ccccc2c2cc(CN3CCN(S(=O)(=O)Cc4ccccc4)CC3)ccc21 | inactive: 4.22%
43 | COc1ccc(N2CCN(C(=O)C3CC(O)CN3S(=O)(=O)c3ccc([N+](=O)[O-])cc3)CC2)cc1 (configuration not stated) | inactive: -8.99%
44 | COc1ccc(NC(=O)Nc2ccc(C(=O)N3CCOCC3)cc2)c(OC)c1 | inactive: 8.26%

Row | SMILES | growth rescue (activation)
45 | N#Cc1nc(COc2ccccc2)oc1N1CCCC1 | inactive: 3.89%
46 | COc1ccc(C/C(C)=N/NC(=S)Nc2ccc(C)c(C)c2)cc1 | inactive: 14%
47 | CCCCNC(=S)NC1CCCC1 | inactive: -12%
48 | O=C(NCc1ccccc1)c1cc(C2CCCCN2C(=O)c2cccs2)on1 (configuration not stated) | inactive: 3.7%
49 | CC(O)(c1ccncc1)c1nc(-c2cccc(C(F)(F)F)c2)cs1 (configuration not stated) | inactive: 21.9%
50 | C/C(=N\NC(=O)CSc1nc2ccccc2s1)c1ccco1 | inactive: 1.44%
51 | COc1ccc(CCC(=O)NC(C)C)cc1 | inactive: -1.76%
52 | COc1ccccc1NS(=O)(=O)c1cccc(C(=O)NNC(=O)c2ccc(Cl)nc2)c1 | inactive: 0.502%
53 | O=C1/C(=C/c2ccc(Br)cc2)Oc2cc(O)ccc21 | inactive: 8.99%
54 | N/C(=N\c1nc2c(c(=O)[nH]1)CCC2)Nc1ccccc1 | inactive: -4.01%
55 | Cc1cccc(-c2noc(CNC(=O)c3ccco3)n2)c1 | inactive: 13.4%
56 | Brc1ccc(CNCCCSc2nnnn2-c2ccccc2)cc1 | inactive: 14.9%
57 | Cc1ccc(S(=O)(=O)N(C)c2c(C)ccc(S(=O)(=O)Nc3ccncc3)c2C)cc1 | inactive: 8.83%
58 | CCc1nc2ccc(C(=O)NCc3cccs3)cn2c1N(CC)CCN(C)C | inactive: 7.72%
59 | CCc1ccc(NC(=O)C(=O)NCCN2CCN(Cc3ccc([N+](=O)[O-])cc3)CC2)cc1 | inactive: 12.1%
60 | COCC(C)NC(=O)C(C)Oc1ccccc1 (configuration not stated) | inactive: -10%
61 | COc1ccc(NS(=O)(=O)c2cccc(C(=O)NNC(=O)c3cc(C)oc3C)c2)cc1 | inactive: 19.6%
62 | O=[N+]([O-])c1ccc(N/N=C\c2ccccc2OCc2ccccc2)cc1 | inactive: 18.1%
63 | CCOP(=O)(OCC)c1nc(-c2ccc(OC)cc2)oc1N1CCOCC1 | inactive: 4.81%
64 | COc1ccc(C(C)=O)cc1COC(=O)c1cccnc1Cl | inactive: 13.9%
65 | CCn1c(CCC(=O)O)nc2cc(S(=O)(=O)N3CCOCC3)ccc21 | inactive: 0.0283%
66 | O=[N+]([O-])c1ccc(N=Nc2c(O)[nH]c3ccc(F)cc23)cc1 | inactive: 19.7%

Row | SMILES | growth rescue (activation)
67 | Cc1nnc(SCc2c(Cl)cccc2[N+](=O)[O-])s1 | inactive: 1.57%
68 | CN=C(NC)SC1CC(=O)N(c2ccccc2)C1=O (configuration not stated) | inactive: -1.75%
69 | CCOC(=O)N1CCN(CC(=O)Nc2ccc(C)c(Br)c2)CC1 | inactive: 21.8%
70 | Cc1cc2oc(=O)cc(CN(C)Cc3ccc(OC(F)F)cc3)c2cc1Cl | inactive: 8.6%
71 | N/C(=N\OC(=O)Cc1cccs1)c1ccc(Br)cc1 | inactive: 6.79%
72 | Nc1nonc1C(=O)N/N=C/c1cc2c(cc1[N+](=O)[O-])OCO2 | inactive: -12.5%
73 | COc1ccc2ccccc2c1/C=N/Nc1ccc(Cl)c(C(=O)O)c1 | inactive: 13.5%
74 | C=C(C)CN(CC)c1ccc(N2C(=O)CCCC2=O)cc1[N+](=O)[O-] | inactive: 14.2%
75 | CCc1ccc2c(c1)NC(=O)C2(C)Cc1ccc(C(F)(F)F)nc1 (configuration not stated) | inactive: 24.9%
76 | CC(Sc1ccccc1)C(=O)NN=C1CCCC1 (configuration not stated) | inactive: 7.16%
77 | O=C(C[n+]1ccc(C(=O)c2ccccc2)cc1)Nc1ccc(C(F)(F)F)cc1 | inactive: -15.4%
78 | Cc1cc(NC(=O)CSc2nc(-c3ccco3)cc(C(F)(F)F)n2)no1 | inactive: 1.69%
79 | O=C(NCc1ccccn1)c1nc(Cn2cc([N+](=O)[O-])cn2)no1 | inactive: 3.88%
80 | CCCn1c(SC(C(=O)Nc2cc(C)ccc2OC)c2ccccc2)nc2ccccc2c1=O (configuration not stated) | inactive: 18.3%
81 | COc1cccc(NC(=S)NCc2ccccn2)c1 | inactive: 11.9%
82 | O=C(Nc1nnc(Cc2ccccc2)s1)c1ccccc1 | inactive: 7.15%
83 | c1ccc(C2=Nn3c(nnc3-c3ccco3)SC2)cc1 | inactive: 7.22%
84 | Cc1ccc(NC(=O)Cn2cnc3cc([N+](=O)[O-])ccc3c2=O)cc1 | inactive: -14%
85 | CC1CCCC(NC(=O)COC(=O)[C@@H](NC(=O)c2ccc(F)cc2)C(C)C)C1C (some centres not stated) | inactive: 9.52%
86 | Cc1cc(NC(=O)C2CC(=O)N(c3ccc(Cl)cc3)C2)no1 (configuration not stated) | inactive: -20.7%
87 | Cc1cc(C)c(S(=O)(=O)NC2CC(C)(C)NC(C)(C)C2)cc1C | inactive: 2.83%
88 | CC1C(=O)Nc2ccc(S(=O)(=O)Nc3ccccc3Br)cc2NC1=O (configuration not stated) | inactive: 6.01%

Row | SMILES | growth rescue (activation)
89 | CCc1ccc(C(=O)/C=C/Nc2ccc(S(=O)(=O)Nc3onc(C)c3C)cc2)cc1 | inactive: -23.8%
90 | COc1ccc(CN2CCNC(=O)C2CC(=O)N(C)Cc2cc(C)no2)cc1OC (configuration not stated) | inactive: 8.67%
91 | COc1ccc(C2CC(c3ccccc3)=NN2c2ccc(Cl)c(C(=O)O)c2)cc1 (configuration not stated) | inactive: -76.6%
92 | CCC1CCC2(CC1)NC(=O)N(CC(=O)NCc1ccccc1Cl)C2=O (configuration not stated) | inactive: 8.21%
93 | CCOc1ccc(-n2c(-c3ccccc3)nnc2-c2ccccc2)cc1 | inactive: 7.92%
94 | O=C(NN(c1ccccc1)c1ccccc1)c1ccc([N+](=O)[O-])o1 | inactive: 9.49%
95 | CC1CC(C)CN(C(=O)Cn2c(=O)n(CCCC(=O)NCc3ccco3)c(=O)c3sccc32)C1 (configuration not stated) | inactive: -11.4%
96 | CNC(=O)c1ccc(-c2nc(-c3ccccc3)cs2)cc1 | inactive: 17.2%
97 | CCN(C(=O)CSc1nnc(-c2ccc(OC)cc2)n1C(C)C)C1CCS(=O)(=O)C1 (configuration not stated) | inactive: 12.9%
98 | NC(=O)c1cccc(-c2coc3c(C(=O)NCc4ccccc4)cccc23)c1 | inactive: 11.6%
99 | COc1ccc(CCNC(=O)C2CC(=O)N(c3ccc(C)cc3)C2)cc1 (configuration not stated) | inactive: -0.881%
100 | CCOc1ccc(S(=O)(=O)N2CCN(S(=O)(=O)c3ccc(C(C)=O)cc3)CC2)cc1 | inactive: 20.8%
101 | Cc1cccc(NC(=O)C2CCN(S(=O)(=O)c3cccc4nonc34)CC2)c1 | inactive: 7.43%
102 | CCOc1ccc(-n2c([S-])c(C(=O)Nc3ccc(S(=O)(=O)N4CCOCC4)cc3)[n+]3cc(C(N)=O)ccc23)cc1 | inactive: 9.27%
103 | Cc1ccc(-n2cc(C(=O)O)c(=O)cc2C)c(C)c1 | inactive: -4.17%
104 | CCCSc1ncc(Cl)c(C(=O)Nc2sc3c(c2C(=O)NCC)CCCC3)n1 | inactive: 2.81%
105 | CSc1ncccc1C(=O)OCC(=O)Nc1cccc(S(=O)(=O)N2CCOCC2)c1 | inactive: 9.53%
106 | Cc1ccc(C)c(S(=O)(=O)N2CCCN(C)CC2)c1 | inactive: -14.6%
107 | Cc1ccc(-c2nnc(Nc3ccc(C(=O)N(C)C)cc3)c3ccccc23)cc1S(=O)(=O)NCC1CCCO1 (configuration not stated) | inactive: 4.75%
